We go through 53 compounds from PubChem BioAssay AID651567 (National Center for Advancing Translational Sciences (NCATS), 2012).

The whole screen tested about 1,200 compounds, of which about 10 (0.8%) were called active. Another 4% or so got no clear call; they are omitted. Calls come from the whole dose curve; as a rule, active = well fitted inhibition curve with a large enough effect; inconclusive = small, poorly fitted or top-dose-only effect; inactive = no such curve, though single readings can be large or run the other way. This is one part of the list.
% is set by controls: 0 for no effect and ±100 for the full control effect.

This test can be described thus: qHTS Assay to Find Inhibitors of Chronic Active B-Cell Receptor Signaling: Hit Validation in OCI-Ly3 Assay. The following applies: OCI-Ly3 IkB-luciferase reporter, Chroma-Glo luminescence, 4 h; series mostly up to 46.1 µM; activity change, negative = inhibition: at the top concentration. From the text: Diffuse large B-cell lymphoma (DLBCL) is the most common category of non-Hodgkin lymphoma, with ~20,000 new cases per year in the United States. DLBCL should be regarded as a collection of different neoplasms. Microarray gene expression analysis has defined two principal types of DLBCL, named for their similarity to normal B cell stages or activation states: a germinal center B-cell (GCB) type, and an activated B-cell (ABC) type. In ABC-DLBCL, a constitutive high-level activity of the NF-kappaB family of transcription factors has been observed (1) and NF-kappaB target genes are more highly expressed in ABC primary tumors than in GCB tumors. Functional studies have shown a constitutive high-level activity of the IkappaB (inhibitor of kappa-B) kinase (IKK) complex. […] Further analysis of DLBCL primary tumors for NF-kappaB target gene expression imply that although CARD11 is required for constitutive IKK activity in all ABC-DLBCL lines, mutations in CARD11 may be the root cause of IKK activation only in lines or tumors with such mutations. In other words, CARD11 mutations may explain NF-kappaB activation in only 10% of ABC-DLBCL cases. […] This process has been termed 'chronic active BCR signaling' (CABS). The goal of this screen is to find small-molecule inhibitors of the CABS pathway found in ABC-DLBCL lines using a cell-based assay that measures IkappaBalpa stability, which has already been extensively validated in the OCI-Ly3 line (PubChem AID:445; REF: 4). […] Hits from the primary screen were tested in this selectivity secondary assay. NIH Molecular Libraries Probe Production Network [MLPCN] NIH Chemical Genomics Center [NCGC] MLPCN Grant: R03 DA031086 PI Name: Dr. R. Eric Davis
Cells were seeded in 1536-well plates at 5000 cells/3ul in IMDM medium containing 0.5% FBS, w/o phenol red, L-glutamine, 25 mM HEPES, 3 mg/ml sodium bicarbonate. After centrifugation for 1 min. at 1000 rpm, 23 nl of compounds or DMSO were delivered to each well using a pin tool. Then 1ul 80ng/ml doxycycline was dispensed into white solid 1536-well plates and the plates were incubated at 37C/5% C02 in a cell incubator for 4 hrs. Then 4 ul Chroma-Glo luminescent substrate mix (Promega) was added to each well. The plate was incubated at R.T. for 10-15 min. The plates were measured on a ViewLux plate reader for green luminescence (540/20 nm filter) and red luminescence (618/8 nm filter). The green and red luminescent signals were corrected for red and green luminescence filter overlap using previously determined filter calibration constants (determined using the procedure outlined in the Promega Technical Manual). The %Activity was determined from the ratio of corrected green/red luminescent values. Green luminescent and ratio %Activity was determined by normalizing to the difference in signal between basal cells (0% Activity) and cells incubated with 10 uM of the proteasome inhibitor MG-132 (100% Activity). Red luminescent %Activity was normalized to the difference between red luminesence in basal cells (0%Activity) and zero luminescence (-100% Activity). Concentration-response curves were fitted to the signals arising from the green luminescence (I-kappa-B-alpha-luciferase fusion; IkB-luc) and the red luminescence (unfused luciferase; luc) as well as the calculated ratio. The concentration-effect curves were then classified based on curve quality (r2), response magnitude and degree of measured activity. Compounds were then categorized based on their concentration-response curves for all three datasets (Ikb-luc, luc and ratio).
On the technique in general: In qHTS, concentration-response curves come from the screen itself.
On to `COc1cc(CC(=O)OCC(=O)c2ccc3c(c2)OCCO3)cc(OC)c1OC`, for which the “activity change, negative = inhibition” value was inactive: -2.34%.

On to `CCOc1ccccc1NC(=O)Cn1nnc(C(=O)NCc2cccs2)c1N`, for which the “activity change, negative = inhibition” value is inactive: -3.2%.

For `Cc1cccc(NS(=O)(=O)c2ccc(-c3cnc(C4CC4)o3)cc2)c1C`, the “activity change, negative = inhibition” value was inactive: -14.9%.

Regarding `C=CCSc1nc(C)cc2c1C(=O)OC2`, the “activity change, negative = inhibition” value is inactive: 0.181%.

Regarding `C#C[C@]1(O)CC[C@H]2[C@@H]3CCc4cc(O)ccc4[C@H]3CC[C@@]21C`, the “activity change, negative = inhibition” value was inactive: -0.706%.

In the case of `c1ccc2c(CSc3ncnc4nc[nH]c34)cccc2c1`, the “activity change, negative = inhibition” value is inactive: -2.81%.

As to `COc1cccc(/C=N/NC(=S)Nc2cccc(S(=O)(=O)N(C)C)c2)c1`, the “activity change, negative = inhibition” value is inactive: -14.5%.

As to `Cc1ccc(C)c(/C=N/NC(=S)NC(C)C)c1`, the “activity change, negative = inhibition” value was inactive: -0.518%.

Consider `CCOc1ccc(S(=O)(=O)Nc2ccc3oc(C)c(C(=O)OCCOC)c3c2)cc1`, for which the “activity change, negative = inhibition” value is inactive: -4.35%.

Take `CCCc1oc2ccc(NS(=O)(=O)c3ccc(OC)cc3)cc2c1C(=O)OCC`: the “activity change, negative = inhibition” value is inactive: -4.35%.

As to `COc1cc(-c2noc(C)c2-c2ccc(N(C)C)nc2)cc(OC)c1OC`, the “activity change, negative = inhibition” value was inactive: -1.48%.

For the compound `Cc1cc(C(=O)OCC(=O)Nc2c(Cl)cccc2Cl)c(C)o1`, the “activity change, negative = inhibition” value is inactive: -0.808%.

Take `CCc1ccc(CNC(=O)Cc2ccc(NC(=O)C3=C(C)OCCS3)cc2)cc1`: the “activity change, negative = inhibition” value is inactive: -2.51%.

As for `CCN(CC)S(=O)(=O)c1ccc(N2CCOCC2)c(NC(=O)c2c3c(nc4ccccc24)CCC3)c1`, the “activity change, negative = inhibition” value was inactive: -1.2%.

Turning to `CCOc1ccccc1C(=O)N1CCN(c2cccc(Cl)c2)CC1`, the “activity change, negative = inhibition” value is inactive: -2.27%.

For the compound `O=C(O)CCCN1C(=O)/C(=C\c2ccccc2OCc2ccccc2)SC1=S`, the “activity change, negative = inhibition” value is inactive: -3.44%.

Turning to `COc1ccc(OC)c(S(=O)(=O)Nc2ccc(-c3ccc4nnc(C)n4n3)cc2)c1`, the “activity change, negative = inhibition” value is inactive: -2.99%.

In the case of `O=C(/C=C/c1cccs1)c1cc(Cl)ccc1OC(=O)N1CCOCC1`, the “activity change, negative = inhibition” value was inactive: -2.1%.

As to `COc1ccc(/C=C/C(=O)c2cc(Br)ccc2OC(=O)c2ccco2)cc1OC`, the “activity change, negative = inhibition” value was inactive: -26.8%.

On to `COCCn1c(-c2cccc([N+](=O)[O-])c2)nc2c1c(=O)[nH]c(=O)n2Cc1ccccc1`, for which the “activity change, negative = inhibition” value is inactive: -0.277%.

With `Cc1cccc(C)c1NS(=O)(=O)c1ccc(-c2cnc(C3CC3)o2)cc1`, the “activity change, negative = inhibition” value is inactive: -5.58%.

On to `O=C(N/N=C/c1ccccc1)c1[nH]c2ccc(Br)cc2c1-c1ccccc1`, for which the “activity change, negative = inhibition” value is inactive: -6.65%.

Turning to `COCCOC(=O)c1[nH]c2c(c1C)C(=O)CC(c1ccccc1)C2` (stereo not drawn), the “activity change, negative = inhibition” value was inactive: -0.738%.

For the compound `c1ccc(-c2cc(-c3nnc4n3N=C(c3ccc5ccccc5c3)CS4)[nH]n2)cc1`, the “activity change, negative = inhibition” value was inactive: -4.31%.

`CCC(NC(=O)CCc1c(C)c2cc3c4c(oc3cc2oc1=O)CCCC4)C(=O)O` (stereo not drawn): the “activity change, negative = inhibition” value was inactive: -0.21%.

On to `CCCC1=Nc2cc(C(=O)NCCCOC(C)C)ccc2Sc2ccccc21`, for which the “activity change, negative = inhibition” value was inactive: -2.65%.

Consider `O=c1cc(-c2cccc(F)c2)[nH]c2ccccc12`, for which the “activity change, negative = inhibition” value is inactive: -3.48%.

On to `Oc1[nH]c(N=C2N=c3ccccc3=N2)c2ccccc12`, for which the “activity change, negative = inhibition” value is inactive: -12.1%.

In the case of `COC(=O)C1=C(C)NC(C)=C(C(=O)OC)C1/C=C/c1ccccc1`, the “activity change, negative = inhibition” value was inactive: -10.9%.

Turning to `COc1ccc(C(=O)Nc2ccc(-n3nncc3-c3ccc(OC)c(OC)c3)cc2)cc1`, the “activity change, negative = inhibition” value is inactive: -7.03%.

On to `CCOc1ccc(N(CC(=O)Nc2ccccc2C)S(=O)(=O)c2c(C)noc2C)cc1`, for which the “activity change, negative = inhibition” value is inactive: -2.55%.

For the compound `CC(/C=N/NC(=O)c1n[nH]c2c1CCC2)=C\c1ccccc1`, the “activity change, negative = inhibition” value was inactive: 0.202%.

On to `O=C(CNCc1ccccc1)Nc1ccc(Oc2ccccc2)cc1`, for which the “activity change, negative = inhibition” value was inactive: -1.02%.

For `Cc1ccc(S(=O)(=O)n2ccc(OC(=O)c3cccs3)n2)cc1`, the “activity change, negative = inhibition” value was inactive: -2.54%.

For `Cc1cc(C)cc(C(=O)N2CC(=O)Nc3ccccc32)c1`, the “activity change, negative = inhibition” value is inactive: -1.15%.

Take `COc1ccc(NC(=S)N/N=C/c2ccc(F)cc2)cc1OC`: the “activity change, negative = inhibition” value is inactive: -2.79%.

For `COc1ccc(-c2noc(CSc3nc(N)c(-c4ccccc4)c(=O)[nH]3)n2)cc1`, the “activity change, negative = inhibition” value was inactive: -0.936%.

For the compound `C/C(=N\NC(=S)NC1CCCCC1)c1ccc(C)o1`, the “activity change, negative = inhibition” value is inactive: -3.08%.

For `Nc1ncnc2c1ncn2[C@@H]1O[C@H](CNCc2ccc(-c3cc(C(F)(F)F)ccc3Cl)o2)[C@@H](O)[C@H]1O`, the “activity change, negative = inhibition” value is inactive: -1%.

Take `S=c1[nH]nc(-c2ccco2)n1/N=C/C(Cl)=C/c1ccccc1`: the “activity change, negative = inhibition” value was inactive: 26.3%.

For the compound `CCCC(C)NC(=O)c1ccc(C2SCC(=O)N2Cc2ccco2)cc1` (stereo not drawn), the “activity change, negative = inhibition” value is inactive: -1.22%.

For the compound `COc1ccc(-c2c(C)c3ccc(O)cc3oc2=O)cc1`, the “activity change, negative = inhibition” value was inactive: -0.672%.

As for `Cn1c(=O)n(C)c2cc(NS(=O)(=O)c3ccc(Br)s3)ccc21`, the “activity change, negative = inhibition” value was inactive: -4.34%.

`CCC1=Nc2cc(C(=O)NCc3ccco3)ccc2Sc2ccc(C)cc21`: the “activity change, negative = inhibition” value is inactive: -4.83%.

Take `S=C(NCc1ccc2[nH]c3c(c2c1)CCCC3)Nc1ccccc1`: the “activity change, negative = inhibition” value is inactive: -16.7%.

As to `COc1cc2sc(-c3ccccc3OC)c(-c3ccc(OCCN4CCOCC4)cc3)c2cc1OC`, the “activity change, negative = inhibition” value was inactive: -2.64%.

For the compound `COc1cccc(N2CCN(C(=O)c3ccc(CS(=O)c4ccccc4Cl)o3)CC2)c1` (stereo not drawn), the “activity change, negative = inhibition” value was inactive: -1.72%.

`COc1cc(OC)c2c(-c3cccc(-c4ccc(NC(C)=O)cc4)c3)cc(=O)oc2c1`: the “activity change, negative = inhibition” value was inactive: -2.94%.

For `CC1CCN(C(=O)CCCOc2cc(=O)n(C)c3ccccc23)CC1`, the “activity change, negative = inhibition” value is inactive: -5.58%.

With `Cc1ccc(-c2ccc(/C=N/NC(N)=S)o2)cc1`, the “activity change, negative = inhibition” value was inactive: 0.782%.

For the compound `O=[N+]([O-])c1ccccc1S(=O)(=O)Nc1cccc2cccnc12`, the “activity change, negative = inhibition” value was inactive: 27.6%.

Turning to `Nc1nc(Cl)nc2c1ncn2[C@@H]1O[C@H](CO)[C@@H](O)[C@H]1O`, the “activity change, negative = inhibition” value was inactive: -0.82%.

For the compound `C(=N\Nc1nc2ccccc2s1)/c1ccccn1`, the “activity change, negative = inhibition” value was inactive: 16%.
